Assay results: PubChem BioAssay AID2546 (National Center for Advancing Translational Sciences (NCATS), 2010)
Out of some 310,000 compounds screened, about 11,000 (3.5%) were called active. This list was built around the results that the source calls inconclusive (neither active nor inactive); the mix of calls is not that of the screen. Calls follow the shape of the dose curve; as a rule, active = well fitted inhibition curve with a large enough effect; inconclusive = small, poorly fitted or top-dose-only effect, or effect the other way; inactive = flat fitted curve, though single readings scatter. No potency is given beside an inconclusive call; the fits are too rough.

assay: VP16 counterscreen qHTS for inhibitors of ROR gamma transcriptional activity; conditions: Drosophila S2 Gal4-VP16 UAS-luciferase, luminescence, 20 h; activity, negative = inhibition: at 53.6 µM (top of the series);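 also: Gal4-VP16 expression switched on by copper sulfate through the metallothionein promoter; nearly all actives have a fitted effect of over 50% in size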
% is scaled to controls: 0 for no effect and ±100 for the full control effect; potency is read from the fitted curve at half-maximal effect; tags tell the direction and shape of the fitted curve.

Row | Structure (SMILES) | Potency | activity, negative = inhibition
1 | O=C(CCCN1C(=O)/C(=C/c2ccco2)SC1=S)Nc1ccccc1 | active: 12.6 µM | –
2 | CCOC(=O)c1ccc[n+](C(C)C(=O)c2ccc(-c3ccccc3)cc2)c1 (centres undefined) | inconclusive [inhibitor, partial curve] | –
3 | O=C(COc1ccc(Br)cc1Cl)NC1CCCCC1 | inconclusive [inhibitor, single point] | –
4 | CC(C)(C)OC(=O)CNC(=O)c1nc[nH]c1C(=O)NCc1ccc(CNC(=O)OC(C)(C)C)cc1 | inconclusive [inhibitor, single point] | –
5 | Nc1nonc1-n1nnc(C(=O)N/N=C/c2ccccc2)c1CN1CCc2ccccc21 | inactive | –
6 | COc1ccc(C(=O)Nc2ccccc2C(=O)N2CCCCCC2)cc1OC | inactive | –
7 | COC(=O)[C@@H]1CC[C@H](C)[C@@H](c2ccc(C)cc2)N1C(=O)c1ccc(/C=N\O[C@@H](C)CN2CCCCc3nc(C)c(C)cc32)cc1 | – | inactive: -2.45% [at 10 µM]
8 | COc1ccc(C(CC(=O)c2ccccc2)S(=O)(=O)c2ccc(C)cc2)cc1 (centres undefined) | inconclusive [inhibitor, single point] | –
9 | Cc1ccc(C(=O)NCCc2cccs2)cc1 | active: 5.62 µM | –
10 | N#CC(c1ccc(Cl)cc1)c1nc2ccccc2nc1C(F)(F)F (centres undefined) | active: 10 µM | –
11 | O=C(NCCC1=CCCCC1)c1cc2c(s1)CS(=O)(=O)C2 | inconclusive [activator, full curve, poor fit] | –
12 | CC(C)C(=O)Nc1cccc(C(=O)Nc2ccccc2C(=O)O)c1 | inconclusive [inhibitor, single point] | –
13 | Cc1ccc(C2C3=C(CC(C)(C)CC3=O)NC3=C2C(=O)c2ccccc23)cc1 (centres undefined) | inconclusive [inhibitor, single point] | –
14 | Cn1c(=NC(=O)c2ccccc2[N+](=O)[O-])sc2cccc(F)c21 | inactive | –
15 | CC(C)=CC(=O)N1CCCC(N2CCN(c3ccc(F)cc3)CC2)C1 (centres undefined) | inactive | –
16 | C=CCn1c(C(c2ccccc2)c2ccccc2)n[nH]c1=S | active: 7.94 µM | –
17 | CCN(C(=O)COC(=O)c1cccnc1Nc1cccc(C(F)(F)F)c1)C1CCS(=O)(=O)C1 (centres undefined) | inconclusive [inhibitor, single point] | –
18 | Cc1ccc(CNc2ccc3c(c2)ncn3C(C)(C)C)cc1 | inconclusive [inhibitor, single point] | –
19 | COc1ccc2nc(N=NC3=C(O)CC(C)(C)CC3=O)sc2c1 | inconclusive [inhibitor, single point] | –
20 | Cc1ccccc1C(=O)/C(C#N)=N/Nc1c(C)n(C)n(-c2ccccc2)c1=O | active: 20 µM | –
21 | FC(F)(F)c1nc(N2CCCC2)ncc1-c1nnnn1-c1ccccc1 | inconclusive [inhibitor, single point] | –
22 | COc1cc2cc(C(c3nnnn3C3CCCC3)N3CCc4ccccc43)c(=O)[nH]c2cc1OC (centres undefined) | inactive | –
23 | CCOc1cc(/C=N/Nc2nnc(C)n2N)ccc1OC(C)=O | inconclusive [inhibitor, single point] | –
24 | C=CCC1(CC=C)CCCN1C(=O)c1cc(COc2cccc(OC)c2)on1 | inconclusive [inhibitor, single point] | –
25 | O=C(CC1CC2CCC1C2)NC1CCCCCCC1 (centres undefined) | inconclusive [activator, single point] | –

Row | Structure (SMILES) | Potency | activity, negative = inhibition
26 | O=C(/C=C/c1ccccc1)Nc1nnc(-c2ccco2)o1 | active: 5.01 µM | –
27 | Cc1ccc2ncccc2c1NS(=O)(=O)c1ccccc1 | inactive | –
28 | Cc1nc(NC(=O)/C=C/c2ccccc2)sc1C(=O)Nc1ccccc1Cl | inconclusive [inhibitor, single point] | –
29 | O=C(CSc1ncccc1C(=O)O)c1ccc2ccccc2c1 | active: 2.24 µM | –
30 | O=C(COC(=O)c1ccccc1C(=O)c1ccc(Cl)cc1)NCC1CCCO1 (centres undefined) | inactive | –
31 | O=C(Nc1ccc(N2CCOCC2)cc1)c1cnsn1 | active: 1.78 µM | –
32 | Cc1ccc(C)c(Cn2c3ccccc3c3cnn(CC(=O)NCCN4CCOCC4)c(=O)c32)c1 | inconclusive [inhibitor, single point] | –
33 | O=C(Nc1ccccc1)N1CCN(Cc2ccc(Cl)cc2)CC1 | inactive | –
34 | OC1CCN(Cc2ccc(OCc3ccccc3)cc2)CC1 | inconclusive [inhibitor, single point] | –
35 | CNc1ccc(/C=C(\C#N)C(=O)Nc2ccccn2)cc1[N+](=O)[O-] | inactive | –
36 | CCOc1cc2[nH]c(=S)n(Cc3ccc(C)o3)c(=O)c2cc1OCC | active: 11.2 µM | –
37 | CSCCC(NC(=O)c1cccc(C)c1)C(=O)Nc1sccc1C(N)=O (centres undefined) | inactive | –
38 | CCc1ccc2c(c1)cc(CN(C(=S)Nc1ccccc1)C1CC1)c1nnnn12 | inconclusive [inhibitor, single point] | –
39 | COCCn1cc(C(=S)N2CCCCC2)c2ccccc21 | inconclusive [inhibitor, single point] | –
40 | O=C1CCCC(O)=C1C=Nc1ccc(O)cc1 | inconclusive [inhibitor, single point] | –
41 | Fc1ccc(-c2nnc(-c3ccc(F)cc3)o2)cc1 | inconclusive [activator, full curve, poor fit] | –
42 | Cc1cc2oc(=O)c(CC(=O)NCCCO)c(C)c2c2occ(C(C)(C)C)c12 | inconclusive [inhibitor, single point] | –
43 | Cc1cccc(C)c1NC(=S)NC(C)CCc1ccccc1 (centres undefined) | active: 4.47 µM | –
44 | CCCN(CC(=O)c1cc(C)n(C)c1C)S(=O)(=O)c1cccc(C(F)(F)F)c1 | inconclusive [inhibitor, single point] | –
45 | O=c1[nH]c(Cc2ccccn2)nc2scc(-c3ccccc3Cl)c12 | active: 11.2 µM | –
46 | O=C(CCl)NC(=O)NC12CC3CC(CC(C3)C1)C2 | inconclusive [inhibitor, single point] | –
47 | Cc1c(NC(=O)c2ccc(N3CCCC3)c([N+](=O)[O-])c2)cccc1-c1nc2ccccc2s1 | – | inactive: 0.987% [at 0.365 µM]
48 | CN(CC(=O)Nc1ccc(F)cc1)C(=O)c1ccncc1 | inconclusive [inhibitor, single point] | –
49 | COc1ccc(-c2cc3ccccc3c(=O)o2)cc1 | inconclusive [inhibitor, partial curve] | –
50 | COCCn1c(C)cc(C(=O)CSc2nnc(C)s2)c1C | active: 1 µM | –

Row | Structure (SMILES) | Potency | activity, negative = inhibition
51 | Fc1cccc(/C=N/Nc2cc(N3CCOCC3)ncn2)c1 | inconclusive [activator, full curve, poor fit] | –
52 | CCCn1c(=O)c(C(=O)NCc2ccc3c(c2)OCO3)c(O)c2ccccc21 | inconclusive [inhibitor, single point] | –
53 | COc1ccc(/C=N/n2cnc3scc(-c4cccs4)c3c2=O)cc1OC | inactive | –
54 | COc1cccc2cc(CC(=O)c3ccc(C)cc3C)c(=O)oc12 | inactive | –
55 | COc1ccc(N=NC2=C(O)CC(C)(C)CC2=O)cc1 | inconclusive [inhibitor, single point] | –
56 | CCCCCCn1c(N2CCN(c3ccccc3)CC2)nc2c1c(=O)[nH]c(=O)n2C | inactive | –
57 | Cc1ccccc1-c1nnc(SCC(=O)N2CCCC2)o1 | inconclusive [inhibitor, full curve, poor fit] | –
58 | CC(C)CN1C(=O)/C(=C/c2cccs2)NC1=S | active: 7.08 µM | –
59 | CC1CCN(c2ccc([N+](=O)[O-])c(SCCO)c2)CC1 | inconclusive [inhibitor, single point] | –
60 | O=C(O)CCCCCCCCc1cn(CC2CCCCC2)nn1 | active: 1.78 µM | –
61 | Cc1ccccc1OCC(=O)Nc1nc2ccccc2[nH]1 | inconclusive [inhibitor, single point] | –
62 | CCCCCCCCOC(=O)c1c(CSC(=N)N)n(C)c2cc(Br)c(OC(C)=O)cc12 | inconclusive [inhibitor, partial curve] | –
63 | CC(C)CN(C(=O)CN1CCc2ccccc21)c1c(N)n(CC(C)C)c(=O)[nH]c1=O | inactive | –
64 | Clc1ccccc1OCCCCN1CCNCC1 | inactive | –
65 | C[C@]12CCC(=O)C=C1CCC1C2C(O)C[C@]2(C)C1CC[C@]2(O)C(=O)COC(=O)CCC(=O)O (some centres undefined) | inactive | –
66 | NC(=O)c1cc2ccccc2o/c1=N/NC(=O)c1cccc(F)c1 | inactive | –
67 | O=C(c1ccco1)N1CCN(c2ncnc3c2[nH]c2ccc(Br)cc23)CC1 | inconclusive [inhibitor, single point] | –
68 | O=C(NCCCN1CCOCC1)c1ccc2c(=O)n(Cc3ccc(Cl)cc3)c(=S)[nH]c2c1 | inconclusive [inhibitor, single point] | –
69 | O=C(N/N=C/C=C/c1ccc(Br)cc1)C(O)c1ccccc1 (centres undefined) | inconclusive [inhibitor, single point] | –
70 | CC1CCN(c2ncnc3c2cnn3-c2ccccc2)CC1 | inconclusive [inhibitor, full curve, poor fit] | –
71 | O=S(=O)(c1ccc(N2CCC(c3ccc(Cl)cc3)=N2)cc1)N(CCO)CCO | inactive | –
72 | CCNC(=S)Nc1cc(OCC)c(NC(=O)c2ccco2)cc1OCC | inconclusive [inhibitor, single point] | –
73 | CC(=O)c1c(C)[nH]c(C(=O)Nc2nc(-c3ccc(-c4ccccc4)cc3)cs2)c1C | inconclusive [inhibitor, single point] | –
74 | O=C(CN1C(=O)/C(=C/c2ccc(Cl)cc2)SC1=S)NC1C=CS(=O)(=O)C1 (centres undefined) | inconclusive [inhibitor, single point] | –
